Out of some 330,000 compounds screened, about 4,200 (1.3%) were called active. This list was built around the results that the source calls inconclusive (neither active nor inactive); the mix of calls is not that of the screen. Calls come from the whole dose curve; as a rule, active = well fitted activation curve with a large enough effect; inconclusive = small, poorly fitted or top-dose-only effect; inactive = no such curve, though single readings can be large or run the other way. A potency beside an inconclusive call is a rough fit, not a confirmed value.
Assay: qHTS screen for small molecules that induce genotoxicity in human embryonic kidney (HEK293T) cells expressing luciferase-tagged ELG1; note: nearly all actives have a fitted effect of over 60% in size; for activity change, positive = activation: % of control where 0% means no effect
Details: HEK293T ELG1-luciferase reporter, luminescence, 16 h; series mostly up to 46 µM; activity change, positive = activation: at the top concentration
How it was run: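 Genotoxic stress is detected as increased luminescence from luciferase-tagged ELG1 in HEK293T cells, measured with ONE-Glo after a 16 hr treatment at 37 °C.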
Potency is the fitted concentration of half-maximal effect; tags give direction and shape of the fitted curve.

SMILES	activity change, positive = activation	Potency
O=S(=O)(c1ccccc1)C1(S(=O)(=O)c2ccccc2)CCCC1	inactive: -2.76%	–
CCCC(C)c1nnc(NC(=O)C2CCCO2)s1 (stereo not given)	–	inconclusive: 20.6 µM [activator, single point]
O=C(OCC(=O)c1cccs1)c1ccc(NC(=O)c2ccco2)cc1	–	inconclusive: 12.6 µM [activator, partial curve, poor fit]
CCN1CCN(C(=O)CSc2cc(=O)n(C)c3ccccc23)CC1	–	inconclusive: 20.6 µM [activator, single point]
O=C(Cc1ccccc1)Nc1ncccn1	inactive: 4.32%	–
CNC(=O)c1[nH]cnc1C(=O)Nc1cccc(C)c1	–	inconclusive: 16.4 µM [activator, single point]
O=C(CSc1nncc2ccccc12)Nc1cccc(C(=O)O)c1	–	inconclusive: 23.1 µM [activator, partial curve, poor fit]
CCOc1ccc(NC(=O)CSc2nnc(-c3ccco3)n2C)cc1	inactive: 8.58%	–
CCN(CC)CC(=O)NC1CC(C)(C)Cc2c1cnn2-c1ccc(F)cc1 (stereo not given)	inactive: 3%	–
Clc1ccc(/C=N/Nc2ccccn2)cc1	–	inconclusive: 29.1 µM [activator, single point]
O=C(Cn1cnc2ccccc2c1=O)c1ccc2c(c1)OCCO2	–	inconclusive: 4.61 µM [activator, full curve]
O=C(Nc1cccc(Cl)c1)N1CCCCCC1	–	inconclusive: 25.9 µM [activator, partial curve, poor fit]
O=C(NCC1CC1)c1cccc2c1C(=O)c1ccc(-c3ccc(OC(F)(F)F)cc3)cc1S2(=O)=O	–	inconclusive: 18.3 µM [activator, partial curve, poor fit]
CC(C)(C)CC(=O)Nc1ccc(-c2nnc3n2CCCCC3)cc1	inactive: 3.16%	–
Cc1ccc(O)c(Nc2c3ccccc3nc3ccccc23)c1	inactive: -9.33%	–
COc1ccc(N2CCN(C(=O)COC(=O)Cc3c(F)cccc3Cl)CC2)cc1	inactive: -5.46%	–
CN(Cc1ccc(Cl)cc1Cl)C(=O)CNC(=O)c1ccco1	inactive: -0.328%	–
O=[N+]([O-])c1ccccc1/C=N/N1CCN(Cc2ccccc2)CC1	–	inconclusive: 18.3 µM [activator, partial curve, poor fit]
COc1ccc(NC(=O)CN2C(=O)CSC(C)C2=O)cc1 (stereo not given)	–	inconclusive: 4.61 µM [activator, single point]
O=C(NCc1cccnc1)c1cc(-c2ccccc2)on1	–	active: 20.6 µM
O=C(Cc1c(F)cccc1Cl)NCC(=O)OCc1ccccc1	inactive: 5.09%	–
CCN1CCN(c2ccc(NC(=O)c3cccc(F)c3)cc2Cl)CC1	–	inconclusive: 13 µM [activator, partial curve]
Cc1ccc2c(c1)COc1c3ccc(C(=O)N4CCCCC4)cc3nn1-2	–	inconclusive: 11.6 µM [activator, partial curve, poor fit]
Clc1ccc(-n2ncc3c(NCC4CCCO4)ncnc32)cc1 (stereo not given)	–	inconclusive: 2.31 µM [activator, partial curve]
Cc1ccsc1CN(C)C(=O)c1ccc(Oc2ccccc2)cc1	–	inconclusive: 23.1 µM [activator, partial curve, poor fit]

SMILES	activity change, positive = activation	Potency
Cc1ccc(NC(=O)Cn2nc(-c3ccccc3)nc2-c2ccccc2)c(C)c1	–	inconclusive: 32.6 µM [activator, partial curve, poor fit]
Cc1ccc(C)n1-c1ccc2c(c1)COC2=O	–	inconclusive: 20.6 µM [activator, partial curve, poor fit]
CC1CCCN(CC(O)COc2ccc(S(=O)(=O)N3CCCC3)cc2[N+](=O)[O-])C1 (stereo not given)	inactive: 0.861%	–
O=C(CSc1ccccc1)NC1CCCCCC1	–	inconclusive: 18.3 µM [activator, single point]
N#C/C(=C\c1ccc(N2CCCCC2)o1)C(=O)Nc1cccc(Br)c1	–	inconclusive: 2.59 µM [activator, full curve]
CCCCOc1ccc(C(=O)N=c2sccn2C)cc1OC	–	inconclusive: 10.3 µM [activator, partial curve]
Cc1[nH]nc2nc(SCC(=O)NC3CCCCC3)n(-c3ccc(Br)cc3)c(=N)c12	–	inconclusive: 23.1 µM [activator, partial curve, poor fit]
CC(=O)c1ccccc1NC(=O)COC(=O)c1cc2ccccc2[nH]1	inactive: 0.771%	–
NS(=O)(=O)c1ccc(CCNc2nc3c(-c4cccc(F)c4)nnn3c3ccccc23)cc1	–	inconclusive: 18.4 µM [activator, single point]
O=S(=O)(Cc1cc(Sc2ccc(Cl)cc2)nc(-c2ccccc2)n1)c1ccccc1	inactive: -2.1%	–
COc1cc([N+](=O)[O-])cc2sc(NC(=O)c3c(F)cccc3F)nc12	inactive: 0.771%	–
Cc1sc(NC(=O)c2sc3nc4c(C)cccc4cc3c2N)c(C#N)c1C	–	inconclusive: 20.6 µM [activator, partial curve]
CC#CCC(CC#CC)c1nc2ccccc2c(=O)n1N	–	inconclusive: 14.6 µM [activator, partial curve, poor fit]
COc1ccc(OCC(=O)C2CC2)c(C#N)c1	–	inconclusive: 18.3 µM [activator, partial curve, poor fit]
CC(=O)N1CCCc2cc(S(=O)(=O)N3CCCC(C(=O)Nc4cccc(F)c4)C3)ccc21 (stereo not given)	inactive: -5.13%	–
Cc1ccn2cc(-c3ccc(O)c(O)c3)nc2c1	–	active: 3.26 µM
Cn1ccc(NC(=O)Nc2ccc(Cl)cc2Cl)n1	–	inconclusive: 18.4 µM [activator, partial curve, poor fit]
CCCCn1c(N)c(N(CCOC)C(=O)C2CCN(C(=O)c3ccc(F)cc3)CC2)c(=O)[nH]c1=O	inactive: -3.66%	–
O=C(OCc1ccccc1)c1ccc2c(c1)-c1ccccc1C2=O	–	active: 10.3 µM
CC(NC(=O)c1ccccc1)c1nnc(SCC(=O)NC2CCCC2)n1C (stereo not given)	inactive: -1.82%	–
Fc1ccc(-c2csc(-c3ccccn3)n2)cc1F	–	inconclusive: 13 µM [activator, partial curve, poor fit]
Cn1c(SCC(=O)NCc2ccc(F)cc2)nc2c([nH]c3ccccc32)c1=O	–	inconclusive: 20.6 µM [activator, single point]
c1ccc(-c2noc(C34CC5CC(CC(C5)C3)C4)n2)nc1	–	active: 14.6 µM
Cc1ccc(OCCNC(=O)c2ccc(COc3ccccc3)o2)cc1	inactive: 8.27%	–
CCN(CC(=O)NCc1ccc(Cl)cc1)C(=O)COc1cccc(Cl)c1	inactive: 1.03%	–

SMILES	activity change, positive = activation	Potency
Nc1nc(NC2CCCCC2)nc(NCCO)c1[N+](=O)[O-]	–	inconclusive: 18.3 µM [activator, partial curve, poor fit]
COc1ccc(C2=NC(c3ccccc3)CO2)cc1 (stereo not given)	–	inconclusive: 23.1 µM [activator, partial curve]
COc1ccc(OCC(O)CN2CCC(CN3C(=O)c4cccc5cccc(c45)C3=O)CC2)cc1 (stereo not given)	inactive: -0.542%	–
N#C/C(=C\c1cccc(Cl)c1)C(=O)c1ccccc1	inactive: 6.03%	–
COc1ccc(C(=O)NCCc2nnc(SCC(=O)Nc3ccc(Br)cc3)n2C)cc1	–	inconclusive: 12.6 µM [activator, single point]
O=C(Nc1ncc([N+](=O)[O-])s1)c1cccc([N+](=O)[O-])c1	–	inconclusive: 0.461 µM [activator, full curve]
O=C(COC(=O)c1cccc(F)c1)Nc1cccnc1Cl	inactive: 4.36%	–
Cc1cc(NC(=O)c2ccccc2)ncc1NC(=O)c1cccs1	–	inconclusive: 10.3 µM [activator, partial curve]
CCCC(=O)N(CCN1CCOCC1)c1nc2cc(C)c(C)cc2s1	–	inconclusive: 14.6 µM [activator, partial curve]
O=C(CSc1ccccn1)Nc1ccc2c(c1)OCCO2	–	inconclusive: 6.51 µM [activator, partial curve]
Cc1ccc(-c2csc(NC(=O)/C=C/c3ccco3)c2C(=O)O)cc1	–	inconclusive: 2.91 µM [activator, full curve, poor fit]
COc1ccc(-c2cn3nc(SCC(=O)NCC4CCCO4)ccc3n2)cc1 (stereo not given)	–	inconclusive: 1.83 µM [activator, full curve]
O=C(Nc1nonc1NC(=O)c1cccs1)c1cccs1	inactive: -6.98%	–
Cc1ccc(NC(=O)c2cnccn2)cc1C	–	inconclusive: 10.3 µM [activator, partial curve]
O=C(N/N=C/c1ccc(Cl)cc1)c1ccc2c(c1)OCO2	–	inconclusive: 16.4 µM [activator, partial curve, poor fit]
COc1ccc(C(=O)Nc2nc3ccccc3[nH]2)cc1S(=O)(=O)N1CCCC1	inactive: 2.75%	–
CCc1[nH]nc(C(=O)N2CCCC(Nc3cccc(F)c3)C2)c1C (stereo not given)	–	inconclusive: 29.1 µM [activator, single point]
COc1ccc(C(=O)OCC(=O)c2ccc(Cl)s2)c(OC)c1OC	–	inconclusive: 18.3 µM [activator, single point]
CC(C(=O)Nc1ccc(Br)cc1)N(C)CC(=O)NCc1ccco1 (stereo not given)	inactive: -1.62%	–
Cc1ccc(C(=O)c2ccccc2C(=O)OCC(=O)NCC2CCCO2)cc1 (stereo not given)	inactive: -0.676%	–
CC(=O)Nc1ccc2c(c1)ncn2-c1ccccc1	–	active: 20.6 µM
Cc1ccc2nc(N/C(=N/S(=O)(=O)c3cccs3)c3ccccc3Cl)sc2c1	inactive: -4.1%	–
O=C(N/N=C/c1ccc2c(c1)OCO2)c1cccs1	–	active: 7.31 µM
C/C(=N\Nc1cccc2cccnc12)c1ccccn1	–	inconclusive: 1.16 µM [activator, single point]
O=c1c2ccccc2nnn1CSc1nc2ccccc2[nH]1	–	inconclusive: 9.2 µM [activator, partial curve]

From PubChem BioAssay AID504466 (National Center for Advancing Translational Sciences (NCATS), 2011)
